# Assay results as given in the supplement of paper PMC8728848.
# The other results are listed elsewhere or left out.
# Tests used:
# Assay in all cases: glycan array binding signal (z-score within array); higher = stronger binding
# Settings in all cases: glycan notation: IUPAC condensed, linker removed
# [1] = molecular target: Gal3S(b1-4)[Fuc(a1-3)]GlcNAc
# Summary of the method: (§1)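 Columns mapping to the same glycan were averaged after glycan names were converted to IUPAC-condensed notation. The data come from 3228 arrays in the Consortium for Functional Glycomics database, limited to those with an available protein sequence. Binding is reported as a within-array Z-score averaged across arrays of one protein sequence and across linkers.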
# [2] = molecular target: Gal3S(b1-4)[Fuc(a1-3)]GlcNAc6S
# Summary of the method: as §1
# [3] = molecular target: Gal3S4S(b1-4)GlcNAc
# Summary of the method: as §1
# [4] = molecular target: Gal3S6S(b1-4)GlcNAc
# Summary of the method: as §1
# [5] = molecular target: Gal3S6S(b1-4)GlcNAc6S
# Summary of the method: as §1
# [6] = molecular target: Gal4S(b1-4)GlcNAc
# Summary of the method: as §1
# [7] = molecular target: Gal4S6S(b1-4)GlcNAc
# Summary of the method: as §1
# [8] = molecular target: Gal6P(b1-4)GlcNAc
# Summary of the method: as §1
# [9] = molecular target: Gal6S(b1-3)GlcNAc
# Summary of the method: as §1
# [10] = molecular target: Gal6S(b1-3)GlcNAc6S
# Summary of the method: as §1
# [11] = molecular target: Gal6S(b1-4)Glc
# Summary of the method: as §1
# [12] = molecular target: Gal6S(b1-4)Glc6S
# Summary of the method: as §1
# [13] = molecular target: Gal6S(b1-4)GlcNAc
# Summary of the method: as §1
# [14] = molecular target: Gal6S(b1-4)GlcNAc6S
# Summary of the method: as §1
# [15] = molecular target: GalNAc(a1-3)Gal
# Summary of the method: as §1
# [16] = molecular target: GalNAc(a1-3)GalNAc
# Summary of the method: as §1
# [17] = molecular target: GalNAc(a1-3)GalNAc(b1-3)Gal(a1-4)Gal(b1-4)Glc
# Summary of the method: as §1
# [18] = molecular target: GalNAc(a1-3)GalNAc(b1-3)Gal(a1-4)Gal(b1-4)GlcNAc
# Summary of the method: as §1
# [19] = molecular target: GalNAc(b1-3)Gal
# Summary of the method: as §1
# [20] = molecular target: GalNAc(b1-3)Gal(a1-4)Gal(b1-4)GlcNAc
# Summary of the method: as §1
# [21] = molecular target: GalNAc(b1-3)Gal(a1-4)Gal(b1-4)GlcNAc(b1-3)Gal(b1-4)Glc
# Summary of the method: as §1
# [22] = molecular target: GalNAc(b1-3)Gal(a1-6)Gal(b1-4)Glc
# Summary of the method: as §1
# [23] = molecular target: GalNAc(b1-3)GalNAc
# Summary of the method: as §1
# [24] = molecular target: GalNAc(b1-3)GlcNAc
# Summary of the method: as §1
# [25] = molecular target: GalNAc(b1-4)Gal(b1-4)Glc
# Summary of the method: as §1
# [26] = molecular target: GalNAc(b1-4)GlcNAc
# Summary of the method: as §1
# [27] = molecular target: GalNAc(b1-4)GlcNAc(b1-2)Man
# Summary of the method: as §1
# [28] = molecular target: GalNAc(b1-4)GlcNAc(b1-2)Man(a1-3)[GalNAc(b1-4)GlcNAc(b1-2)Man(a1-6)]Man(b1-4)GlcNAc(b1-4)GlcNAc
# Summary of the method: as §1
# [29] = molecular target: GalNAc(b1-4)GlcNAc(b1-3)GalNAc(b1-4)GlcNAc
# Summary of the method: as §1
# [30] = molecular target: GalNAc(b1-4)GlcNAc6S
# Summary of the method: as §1
# [31] = molecular target: GalNAc(b1-6)GalNAc
# Summary of the method: as §1
# [32] = molecular target: GalNAc3S(b1-4)GlcNAc
# Summary of the method: as §1
# [33] = molecular target: GalNAc3S(b1-4)GlcNAc3S
# Summary of the method: as §1
# [34] = molecular target: GalNAc3S(b1-4)[Fuc(a1-3)]GlcNAc
# Summary of the method: as §1
# [35] = molecular target: GalNAc4S6S(b1-4)GlcNAc
# Summary of the method: as §1
# [36] = molecular target: GalNAc6S(b1-4)GlcNAc
# Summary of the method: as §1
# [37] = molecular target: Glc(a1-4)Glc
# Summary of the method: as §1
binder,measurement,setting,value
"Epa7 (Candida glabrata), Q6DTM6_CANGB (protein) MGSSHHHHHHSSGLVPRGSHMKDDYSSFLSNNNLGWTDPTEFPLGCSPNVTTPKNGLSMELYSYDLRKNGSYPCWDAAYLDPNYPRTGYKSHRLLAKVDGVTGNINFYYHATKGCTPEIDHLPASYNYPKPLTMTNFTMLLYGYFKPKVTGYHTFTISADDLLFVNFGAGNAFDCCKRESSADDFGNYQAYAVWGSQTAKDDLTVHLDAGLYYPIRIFFNNREYDAELSLTLKTESDSNPVIDFSDYFYSFDDTKDGCPGLVSYDTS",glycan array binding signal (z-score),[1],-0.23
same,glycan array binding signal (z-score),[2],-0.235
same,glycan array binding signal (z-score),[3],-0.237
same,glycan array binding signal (z-score),[4],-0.25
same,glycan array binding signal (z-score),[5],-0.233
same,glycan array binding signal (z-score),[6],-0.253
same,glycan array binding signal (z-score),[7],-0.247
same,glycan array binding signal (z-score),[8],-0.241
same,glycan array binding signal (z-score),[9],-0.215
same,glycan array binding signal (z-score),[10],-0.215
same,glycan array binding signal (z-score),[11],-0.227
same,glycan array binding signal (z-score),[12],0.137
same,glycan array binding signal (z-score),[13],-0.237
same,glycan array binding signal (z-score),[14],-0.189
same,glycan array binding signal (z-score),[15],-0.252
same,glycan array binding signal (z-score),[16],-0.255
same,glycan array binding signal (z-score),[17],-0.231
same,glycan array binding signal (z-score),[18],-0.208
same,glycan array binding signal (z-score),[19],-0.245
same,glycan array binding signal (z-score),[20],-0.251
same,glycan array binding signal (z-score),[21],-0.209
same,glycan array binding signal (z-score),[22],-0.238
same,glycan array binding signal (z-score),[23],-0.236
same,glycan array binding signal (z-score),[24],-0.243
same,glycan array binding signal (z-score),[25],-0.213
same,glycan array binding signal (z-score),[26],-0.252
same,glycan array binding signal (z-score),[27],-0.243
same,glycan array binding signal (z-score),[28],-0.231
same,glycan array binding signal (z-score),[29],-0.241
same,glycan array binding signal (z-score),[30],-0.241
same,glycan array binding signal (z-score),[31],-0.242
same,glycan array binding signal (z-score),[32],-0.236
same,glycan array binding signal (z-score),[33],-0.243
same,glycan array binding signal (z-score),[34],-0.223
same,glycan array binding signal (z-score),[35],-0.231
same,glycan array binding signal (z-score),[36],-0.237
same,glycan array binding signal (z-score),[37],-0.25
